Measurements as given in the supplement of paper PMC9446081.
Out of some 39,000 compounds screened, about 220 (0.56%) showed activity. The list shows a part of the results.

What follows are molecules tested on Escherichia coli K-12 BW25113 (assay: relative growth (OD600 normalised to plate interquartile mean) (fraction); higher = less growth inhibition, active = 0.2 or less). Settings: 50 µM; LB; incubation time: overnight (16-24 h).
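Further: static incubation at 37 °C against the wild-type strain, values averaged over two biological replicates.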

| SMILES | relative growth |
| --- | --- |
| CC[C@@H]1OC[C@@H]2CN(C(=O)CN(C)C)CC[C@H]21 | inactive: 1.03 |
| CN(C)CC(=O)OCC(O)C(O)C(O)C(O)C(=O)[O-].[Na+] (centres undefined) | inactive: 1.12 |
| COc1ccc(CN(C)C[C@H]2OCCCC[C@H](C)Oc3ccc(NC(=O)Nc4cccc5ccccc45)cc3C(=O)N([C@@H](C)CO)C[C@H]2C)cc1 | inactive: 1.02 |
| Cc1cccc(N(C)C(=S)Oc2ccc3ccccc3c2)c1 | inactive: 0.982 |
| CCCCC/C=C\C/C=C\CCCCCCCC(=O)O | inactive: 0.904 |
| Cc1noc(C)c1NC(=O)N(C)C[C@@H]1Oc2c(NC(=O)NC(C)C)cccc2C(=O)N([C@H](C)CO)C[C@@H]1C | inactive: 1.01 |
| C[C@@H]1CN([C@H](C)CO)C(=O)c2cc(NC(=O)C3CCCCC3)ccc2O[C@@H](C)CCCCO[C@H]1CN(C)Cc1ccc(Cl)c(Cl)c1 | inactive: 0.911 |
| C[C@@H]1CN([C@@H](C)CO)C(=O)c2cc(NC(=O)Nc3ccc(C(F)(F)F)cc3)ccc2O[C@@H]1CN(C)C(=O)Nc1ccccc1 | inactive: 1 |
| O=C(C[C@@H]1CC[C@H](NS(=O)(=O)c2ccccc2F)[C@@H](CO)O1)NCCCN1CCOCC1 | inactive: 0.991 |
| COCCNC(=O)c1ccc(N2C[C@H]3C[C@@H](C2)c2cccc(=O)n2C3)c(NC(=O)c2ccc(OC)cc2)c1 | inactive: 0.987 |
| C[C@@H]1CN([C@@H](C)CO)C(=O)Cc2cc(N(C)C)ccc2O[C@@H]1CN(C)S(=O)(=O)c1ccc(F)cc1 | inactive: 1.01 |
| C[C@H]1CN([C@@H](C)CO)C(=O)Cc2cc(NC(=O)Nc3cccc4ccccc34)ccc2O[C@@H]1CN(C)C(=O)Nc1ccc(F)cc1 | inactive: 0.993 |
| N[C@@H](COP(=O)(O)O)C(=O)O | inactive: 1.01 |
| C[C@H]1CN([C@@H](C)CO)C(=O)c2cc(NC(=O)c3ccncc3)ccc2O[C@@H]1CN(C)S(=O)(=O)c1ccc(F)cc1 | inactive: 1 |
| COc1cccc(S(=O)(=O)N2C[C@@H](O)COC[C@@H]3O[C@@H](CC(=O)N4CCOCC4)CC[C@H]32)c1 | inactive: 0.998 |
| Cc1ccc(S(=O)(=O)Nc2ccc3c(c2)C(=O)N([C@H](C)CO)C[C@@H](C)[C@H](CN(C)S(=O)(=O)c2ccccc2)O3)cc1 | inactive: 1.01 |
| Cc1noc(C)c1NC(=O)N(C)C[C@H]1Oc2ccc(NC(=O)Cn3cnnn3)cc2C(=O)N([C@H](C)CO)C[C@@H]1C | inactive: 0.959 |
| CN1CCN(C(=O)C[C@H]2CC[C@@H](NC(=O)Cc3ccccn3)[C@H](CO)O2)CC1 | inactive: 0.975 |
| C[C@H](CO)N1C[C@H](C)[C@@H](CN(C)S(C)(=O)=O)OCCCC[C@H](C)Oc2ccc(NS(=O)(=O)c3ccc(F)cc3)cc2C1=O | inactive: 0.989 |
